In publication PMC5908784, “Extracellular loops 2 and 3 of the calcitonin receptor selectively modify agonist binding and efficacy” (Biochemical Pharmacology, 2018):

Assays:
Assay in all cases: cAMP accumulation
Format in all cases: cell-based
hCTR Y374A = molecular target: T1, hCTR Y374A (Homo sapiens, UniProt P30988, Y374A); conditions: CV1-FlpIn cells, 30 min, IBMX, mean ± S.E.M.
T1 construct: c-Myc (N); expressed in transfected cells
Procedure: (§1) Cells (2.5 × 10^4 cells/well) were seeded into 96-well plates and incubated overnight. Cells were stimulated with increasing concentrations of ligands for 30 min in the presence of IBMX. The liquid was discarded, changed to absolute ethanol and volatilized to dryness at room temperature. […] Data were normalized to the response of 100 μM forskolin.
(§2) Data were corrected for radioligand occupancy using the Cheng-Prusoff equation in Prism; as such data are reported as pKi. Emax and EC50 were estimated from concentration-response curves using with a 3-parameter logistic equation in Prism (v7). These values are a composite of functional affinity, efficacy and stimulus response coupling. […] Significance was accepted at P < 0.05.

hCTR N365A = molecular target: T2, hCTR N365A (Homo sapiens, UniProt P30988, N365A); conditions: CV1-FlpIn cells, 30 min, IBMX, mean ± S.E.M.
T2 construct: c-Myc (N); expressed in transfected cells
T2 sequence (P30988 25-474 N365A): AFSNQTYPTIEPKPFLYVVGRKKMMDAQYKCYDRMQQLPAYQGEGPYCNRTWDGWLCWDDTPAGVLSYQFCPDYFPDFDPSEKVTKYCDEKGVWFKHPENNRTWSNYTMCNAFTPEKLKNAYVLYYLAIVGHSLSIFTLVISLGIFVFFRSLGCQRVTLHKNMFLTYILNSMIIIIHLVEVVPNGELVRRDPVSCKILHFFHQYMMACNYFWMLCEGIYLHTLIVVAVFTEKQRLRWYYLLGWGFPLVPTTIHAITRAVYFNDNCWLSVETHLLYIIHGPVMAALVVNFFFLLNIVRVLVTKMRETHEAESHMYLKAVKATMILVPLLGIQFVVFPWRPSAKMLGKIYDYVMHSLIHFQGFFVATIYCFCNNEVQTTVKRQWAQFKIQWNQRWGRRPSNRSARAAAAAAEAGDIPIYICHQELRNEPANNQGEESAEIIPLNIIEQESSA
Procedure: as §1, §2

hCTR V358A = molecular target: T3, hCTR V358A (Homo sapiens, UniProt P30988, V358A); conditions: CV1-FlpIn cells, 30 min, IBMX, mean ± S.E.M.
T3 construct: c-Myc (N); expressed in transfected cells
T3 sequence (P30988 25-474 V358A): as the sequence (P30988 25-474 N365A) above, with V334A, A341N counted along it
Procedure: as §1, §2

hCTR H296A = molecular target: T4, hCTR H296A (Homo sapiens, UniProt P30988, H296A); conditions: CV1-FlpIn cells, 30 min, IBMX, mean ± S.E.M.
T4 construct: c-Myc (N); expressed in transfected cells
T4 sequence (P30988 25-474 H296A): as the sequence (P30988 25-474 N365A) above, with H272A, A341N counted along it
Procedure: as §1, §2

hCTR L291A = molecular target: T5, hCTR L291A (Homo sapiens, UniProt P30988, L291A); conditions: CV1-FlpIn cells, 30 min, IBMX, mean ± S.E.M.
T5 construct: expressed in transfected cells
T5 sequence (P30988 25-474 L291A): as the sequence (P30988 25-474 N365A) above, with L267A, A341N counted along it
Procedure: as §1, §2

hCTR L297A = molecular target: T6, hCTR L297A (Homo sapiens, UniProt P30988, L297A); conditions: CV1-FlpIn cells, 30 min, IBMX, mean ± S.E.M.
T6 construct: c-Myc (N); expressed in transfected cells
T6 sequence (P30988 25-474 L297A): as the sequence (P30988 25-474 N365A) above, with L273A, A341N counted along it
Procedure: as §1, §2

hCTR F356A = molecular target: T7, hCTR F356A (Homo sapiens, UniProt P30988, F356A); conditions: CV1-FlpIn cells, 30 min, IBMX, mean ± S.E.M.
T7 construct: c-Myc (N); expressed in transfected cells
T7 sequence (P30988 25-474 F356A): as the sequence (P30988 25-474 N365A) above, with F332A, A341N counted along it
Procedure: as §1, §2

hCTR F359A = molecular target: T8, hCTR F359A (Homo sapiens, UniProt P30988, F359A); conditions: CV1-FlpIn cells, 30 min, IBMX, mean ± S.E.M.
T8 construct: expressed in transfected cells
T8 sequence (P30988 25-474 F359A): as the sequence (P30988 25-474 N365A) above, with F335A, A341N counted along it
Procedure: as §1, §2

hCTR P363A = molecular target: T9, hCTR P363A (Homo sapiens, UniProt P30988, P363A); conditions: CV1-FlpIn cells, 30 min, IBMX, mean ± S.E.M.
T9 construct: expressed in transfected cells
T9 sequence (P30988 25-474 P363A): as the sequence (P30988 25-474 N365A) above, with P339A, A341N counted along it
Procedure: as §1, §2

hCTR T295A = molecular target: T10, hCTR T295A (Homo sapiens, UniProt P30988, T295A); conditions: CV1-FlpIn cells, 30 min, IBMX, mean ± S.E.M.
T10 construct: c-Myc (N); expressed in transfected cells
T10 sequence (P30988 25-474 T295A): as the sequence (P30988 25-474 N365A) above, with T271A, A341N counted along it
Procedure: as §1, §2

hCTR Y299A = molecular target: T11, hCTR Y299A (Homo sapiens, UniProt P30988, Y299A); conditions: CV1-FlpIn cells, 30 min, IBMX, mean ± S.E.M.
T11 construct: c-Myc (N); expressed in transfected cells
T11 sequence (P30988 25-474 Y299A): as the sequence (P30988 25-474 N365A) above, with Y275A, A341N counted along it
Procedure: as §1, §2

hCTR M376A = molecular target: T12, hCTR M376A (Homo sapiens, UniProt P30988, M376A); conditions: CV1-FlpIn cells, 30 min, IBMX, mean ± S.E.M.
T12 construct: c-Myc (N); expressed in transfected cells
T12 sequence (P30988 25-474 M376A): as the sequence (P30988 25-474 N365A) above, with A341N, M352A counted along it
Procedure: as §1, §2

hCTR WT = molecular target: T13, hCTR WT (Homo sapiens, UniProt P30988); conditions: CV1-FlpIn cells, 30 min, IBMX, mean ± S.E.M.
T13 construct: expressed in transfected cells
T13 sequence (P30988 25-474): as the sequence (P30988 25-474 N365A) above, with A341N counted along it
Procedure: as §1, §2

hCTR R281A = molecular target: T14, hCTR R281A (Homo sapiens, UniProt P30988, R281A); conditions: CV1-FlpIn cells, 30 min, IBMX, mean ± S.E.M.
T14 construct: expressed in transfected cells
T14 sequence (P30988 25-474 R281A): as the sequence (P30988 25-474 N365A) above, with R257A, A341N counted along it
Procedure: as §1, §2

hCTR D373A = molecular target: T15, hCTR D373A (Homo sapiens, UniProt P30988, D373A); conditions: CV1-FlpIn cells, 30 min, IBMX, mean ± S.E.M.
T15 construct: c-Myc (N); expressed in transfected cells
T15 sequence (P30988 25-474 D373A): as the sequence (P30988 25-474 N365A) above, with A341N, D349A counted along it
Procedure: as §1, §2

hCTR M367A = molecular target: T16, hCTR M367A (Homo sapiens, UniProt P30988, M367A); conditions: CV1-FlpIn cells, 30 min, IBMX, mean ± S.E.M.
T16 construct: c-Myc (N); expressed in transfected cells
T16 sequence (P30988 25-474 M367A): as the sequence (P30988 25-474 N365A) above, with A341N, M343A counted along it
Procedure: as §1, §2

hCTR S364A = molecular target: T17, hCTR S364A (Homo sapiens, UniProt P30988, S364A); conditions: CV1-FlpIn cells, 30 min, IBMX, mean ± S.E.M.
T17 construct: c-Myc (N); expressed in transfected cells
T17 sequence (P30988 25-474 S364A): as the sequence (P30988 25-474 N365A) above, with S340A, A341N counted along it
Procedure: as §1, §2

hCTR T280A = molecular target: T18, hCTR T280A (Homo sapiens, UniProt P30988, T280A); conditions: CV1-FlpIn cells, 30 min, IBMX, mean ± S.E.M.
T18 construct: expressed in transfected cells
T18 sequence (P30988 25-474 T280A): as the sequence (P30988 25-474 N365A) above, with T256A, A341N counted along it
Procedure: as §1, §2

hCTR W361A = molecular target: T19, hCTR W361A (Homo sapiens, UniProt P30988, W361A); conditions: CV1-FlpIn cells, 30 min, IBMX, mean ± S.E.M.
T19 construct: expressed in transfected cells
T19 sequence (P30988 25-474 W361A): as the sequence (P30988 25-474 N365A) above, with W337A, A341N counted along it
Procedure: as §1, §2

hCTR C289A = molecular target: T20, hCTR C289A (Homo sapiens, UniProt P30988, C289A); conditions: CV1-FlpIn cells, 30 min, IBMX, mean ± S.E.M.
T20 construct: c-Myc (N); expressed in transfected cells
T20 sequence (P30988 25-474 C289A): as the sequence (P30988 25-474 N365A) above, with C265A, A341N counted along it
Procedure: as §1, §2

hCTR V293A = molecular target: T21, hCTR V293A (Homo sapiens, UniProt P30988, V293A); conditions: CV1-FlpIn cells, 30 min, IBMX, mean ± S.E.M.
T21 construct: c-Myc (N); expressed in transfected cells
T21 sequence (P30988 25-474 V293A): as the sequence (P30988 25-474 N365A) above, with V269A, A341N counted along it
Procedure: as §1, §2

hCTR L298A = molecular target: T22, hCTR L298A (Homo sapiens, UniProt P30988, L298A); conditions: CV1-FlpIn cells, 30 min, IBMX, mean ± S.E.M.
T22 construct: c-Myc (N); expressed in transfected cells
T22 sequence (P30988 25-474 L298A): as the sequence (P30988 25-474 N365A) above, with L274A, A341N counted along it
Procedure: as §1, §2

hCTR N286A = molecular target: T23, hCTR N286A (Homo sapiens, UniProt P30988, N286A); conditions: CV1-FlpIn cells, 30 min, IBMX, mean ± S.E.M.
T23 construct: c-Myc (N); expressed in transfected cells
T23 sequence (P30988 25-474 N286A): as the sequence (P30988 25-474 N365A) above, with N262A, A341N counted along it
Procedure: as §1, §2

hCTR I279A = molecular target: T24, hCTR I279A (Homo sapiens, UniProt P30988, I279A); conditions: CV1-FlpIn cells, 30 min, IBMX, mean ± S.E.M.
T24 construct: expressed in transfected cells
T24 sequence (P30988 25-474 I279A): as the sequence (P30988 25-474 N365A) above, with I255A, A341N counted along it
Procedure: as §1, §2

hCTR Y372A = molecular target: T25, hCTR Y372A (Homo sapiens, UniProt P30988, Y372A); conditions: CV1-FlpIn cells, 30 min, IBMX, mean ± S.E.M.
T25 construct: c-Myc (N); expressed in transfected cells
T25 sequence (P30988 25-474 Y372A): as the sequence (P30988 25-474 N365A) above, with A341N, Y348A counted along it
Procedure: as §1, §2

hCTR F285A = molecular target: T26, hCTR F285A (Homo sapiens, UniProt P30988, F285A); conditions: CV1-FlpIn cells, 30 min, IBMX, mean ± S.E.M.
T26 construct: expressed in transfected cells
T26 sequence (P30988 25-474 F285A): as the sequence (P30988 25-474 N365A) above, with F261A, A341N counted along it
Procedure: as §1, §2

hCTR V283A = molecular target: T27, hCTR V283A (Homo sapiens, UniProt P30988, V283A); conditions: CV1-FlpIn cells, 30 min, IBMX, mean ± S.E.M.
T27 construct: expressed in transfected cells
T27 sequence (P30988 25-474 V283A): as the sequence (P30988 25-474 N365A) above, with V259A, A341N counted along it
Procedure: as §1, §2

hCTR R362A = molecular target: T28, hCTR R362A (Homo sapiens, UniProt P30988, R362A)
T28 construct: expressed in transfected cells
T28 sequence (P30988 25-474 R362A): as the sequence (P30988 25-474 N365A) above, with R338A, A341N counted along it
Procedure: as §1, §2

hCTR W290A = molecular target: T29, hCTR W290A (Homo sapiens, UniProt P30988, W290A); conditions: CV1-FlpIn cells, 30 min, IBMX, mean ± S.E.M.
T29 construct: c-Myc (N); expressed in transfected cells
T29 sequence (P30988 25-474 W290A): as the sequence (P30988 25-474 N365A) above, with W266A, A341N counted along it
Procedure: as §1, §2

hCTR S292A = molecular target: T30, hCTR S292A (Homo sapiens, UniProt P30988, S292A); conditions: CV1-FlpIn cells, 30 min, IBMX, mean ± S.E.M.
T30 construct: expressed in transfected cells
T30 sequence (P30988 25-474 S292A): as the sequence (P30988 25-474 N365A) above, with S268A, A341N counted along it
Procedure: as §1, §2

hCTR I371A = molecular target: T31, hCTR I371A (Homo sapiens, UniProt P30988, I371A); conditions: CV1-FlpIn cells, 30 min, IBMX, mean ± S.E.M.
T31 construct: c-Myc (N); expressed in transfected cells
T31 sequence (P30988 25-474 I371A): as the sequence (P30988 25-474 N365A) above, with A341N, I347A counted along it
Procedure: as §1, §2

hCTR Y284A = molecular target: T32, hCTR Y284A (Homo sapiens, UniProt P30988, Y284A); conditions: CV1-FlpIn cells, 30 min, IBMX, mean ± S.E.M.
T32 construct: expressed in transfected cells
T32 sequence (P30988 25-474 Y284A): as the sequence (P30988 25-474 N365A) above, with Y260A, A341N counted along it
Procedure: as §1, §2

hCTR I300A = molecular target: T33, hCTR I300A (Homo sapiens, UniProt P30988, I300A); conditions: CV1-FlpIn cells, 30 min, IBMX, mean ± S.E.M.
T33 construct: c-Myc (N); expressed in transfected cells
T33 sequence (P30988 25-474 I300A): as the sequence (P30988 25-474 N365A) above, with I276A, A341N counted along it
Procedure: as §1, §2

T1 sequence (P30988 25-474 Y374A): as the sequence (P30988 25-474 N365A) above, with A341N, Y350A counted along it

## CC(C)C[C@H](NC(=O)[C@H](CC(N)=O)NC(=O)[C@H](CC(N)=O)NC(=O)[C@H](CO)NC(=O)[C@H](CO)NC(=O)[C@H](CCCNC(=N)N)NC(=O)[C@@H](NC(=O)[C@H](CC(C)C)NC(=O)[C@H](Cc1ccccc1)NC(=O)[C@H](CC(N)=O)NC(=O)[C@H](C)NC(=O)[C@H](CC(C)C)NC(=O)[C@H](CCCNC(=N)N)NC(=O)[C@H](CCC(N)=O)NC(=O)[C@@H](NC(=O)[C@H](C)NC(=O)[C@@H]1CSSC[C@H](NC(=O)[C@@H](N)CCCCN)C(=O)N[C@@H](CC(N)=O)C(=O)N[C@@H]([C@@H](C)O)C(=O)N[C@@H](C)C(=O)N[C@@H]([C@@H](C)O)C(=O)N1)[C@@H](C)O)C(C)C)C(=O)NCC(=O)N1CCC[C@H]1C(=O)N[C@H](C(=O)N[C@@H](CC(C)C)C(=O)N1CCC[C@H]1C(=O)N1CCC[C@H]1C(=O)N[C@H](C(=O)N[C@@H](CC(N)=O)C(=O)N[C@H](C(=O)NCC(=O)N[C@@H](CO)C(=O)N[C@@H](CC(N)=O)C(=O)N[C@H](C(=O)N[C@@H](Cc1ccc(O)cc1)C(N)=O)[C@@H](C)O)C(C)C)[C@@H](C)O)C(C)C [rAmy]
hCTR Y374A
  EC50: 7.94 nM
hCTR N365A
  EC50: 6.61 nM
hCTR V358A
  EC50: 13.8 nM
hCTR H296A
  EC50: 5.13 nM
hCTR L291A
  EC50: 18.2 nM
hCTR L297A
  EC50: 13.5 nM
hCTR F356A
  EC50: 24 nM
hCTR F359A
  EC50: 23.4 nM
hCTR P363A
  EC50: 15.1 nM
hCTR T295A
  EC50: 43.7 nM
hCTR Y299A
  EC50: 19.5 nM
hCTR M376A
  EC50: 46.8 nM
hCTR WT
  EC50: 8.91 nM
hCTR R281A
  EC50: 43.7 nM
hCTR D373A
  EC50: 10.5 nM
hCTR M367A
  EC50: 5.01 nM
hCTR S364A
  EC50: 4.47 nM
hCTR T280A
  EC50: 3.39 nM
hCTR W361A
  EC50: 16.2 nM
hCTR C289A
  EC50: 67.6 nM
hCTR V293A
  EC50: 7.41 nM
hCTR L298A
  EC50: 6.17 nM
hCTR N286A
  EC50: 44.7 nM
hCTR I279A
  EC50: 2.95 nM
hCTR Y372A
  EC50: 186 nM
hCTR F285A
  EC50: 6.76 nM
hCTR V283A
  EC50: 6.76 nM
hCTR R362A
  EC50: 24.5 nM
hCTR W290A
  EC50: 81.3 nM
hCTR S292A
  EC50: 4.07 nM
hCTR I371A
  EC50: 1.86 nM
hCTR Y284A
  EC50: 10.2 nM
hCTR I300A
  EC50: 24.5 nM
